# Source: PMC4336329 (PLoS ONE, 2015)
# About 2,200 (0.71%) of roughly 310,000 compounds showed an effect of 50% or more. Effects have a minus sign here. The list shows a part of the results.
# Molecular target: human ether-à-go-go-related gene (hERG) potassium channel (human, UniProt Q12809)
# Assay: primary screen, population patch clamp on CHO cells stably expressing hERG
# Chain of human ether-à-go-go-related gene (hERG) potassium channel (Q12809 whole entry, looked up): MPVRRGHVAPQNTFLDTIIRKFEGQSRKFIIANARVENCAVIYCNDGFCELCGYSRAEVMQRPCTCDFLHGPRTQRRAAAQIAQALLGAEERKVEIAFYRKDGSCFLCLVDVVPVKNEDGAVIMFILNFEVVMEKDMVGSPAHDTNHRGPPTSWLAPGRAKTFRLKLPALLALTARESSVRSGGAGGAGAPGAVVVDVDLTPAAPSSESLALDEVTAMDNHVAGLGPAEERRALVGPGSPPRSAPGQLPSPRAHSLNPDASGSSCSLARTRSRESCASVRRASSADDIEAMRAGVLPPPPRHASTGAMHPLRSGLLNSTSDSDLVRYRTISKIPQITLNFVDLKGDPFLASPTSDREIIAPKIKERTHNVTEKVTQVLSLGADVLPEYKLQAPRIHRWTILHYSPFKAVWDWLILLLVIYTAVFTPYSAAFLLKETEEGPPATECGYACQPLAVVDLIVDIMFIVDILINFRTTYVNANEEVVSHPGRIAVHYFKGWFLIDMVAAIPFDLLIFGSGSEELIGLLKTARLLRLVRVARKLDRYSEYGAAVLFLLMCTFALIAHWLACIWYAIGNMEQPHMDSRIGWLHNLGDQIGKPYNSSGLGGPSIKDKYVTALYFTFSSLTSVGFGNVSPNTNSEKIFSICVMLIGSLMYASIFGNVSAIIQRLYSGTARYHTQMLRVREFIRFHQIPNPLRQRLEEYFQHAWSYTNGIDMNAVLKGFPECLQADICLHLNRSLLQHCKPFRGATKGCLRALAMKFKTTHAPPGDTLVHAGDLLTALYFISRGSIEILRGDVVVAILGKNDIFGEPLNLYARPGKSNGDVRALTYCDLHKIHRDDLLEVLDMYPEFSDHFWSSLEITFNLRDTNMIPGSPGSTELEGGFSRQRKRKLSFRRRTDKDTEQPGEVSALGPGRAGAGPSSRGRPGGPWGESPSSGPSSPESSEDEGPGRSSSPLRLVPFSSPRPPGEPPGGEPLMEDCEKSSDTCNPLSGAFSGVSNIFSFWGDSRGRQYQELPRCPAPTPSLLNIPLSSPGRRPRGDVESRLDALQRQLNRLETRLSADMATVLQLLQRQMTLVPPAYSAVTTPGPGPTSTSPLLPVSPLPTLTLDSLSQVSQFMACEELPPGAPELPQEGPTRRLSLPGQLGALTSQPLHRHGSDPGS
row,SMILES,"hERG current change (%, negative = inhibition) at 1uM"
1,O=C(CCS(=O)(=O)c1ccccc1)Nc1ccc(N2CCOCC2)cc1,6.38%
2,CC(=O)c1ccc(S(=O)(=O)NCC2(N3CCOCC3)CCCCC2)cc1,4.95%
3,Cc1nc2ccc(NS(=O)(=O)c3ccc4c(c3)OCCO4)cc2s1,4.93%
4,CC(=O)c1cc(C)ccc1OC(=O)c1ccncc1,11.6%
5,O=C(CN1CCC(n2nnc3cc(C(F)(F)F)ccc32)CC1)NCc1cccs1,-56.9%
6,Cc1nc(C)n(CC(O)COc2ccc3cc(Br)ccc3c2)n1 (centres unmarked),3.72%
7,O=C(CCC(=O)N(c1ccccc1)C(C(=O)NC1CCCC1)c1ccncc1)Nc1cccnc1 (centres unmarked),7.56%
8,Cn1cccc1Cc1nnc(SCC(=O)NCCc2ccccc2)n1-c1ccc(F)cc1,-6.24%
9,O=C(Nc1cccnc1)c1ccc2nc(-c3ccccc3)c(-c3ccccc3)nc2c1,8.69%
10,Cc1ccc(CSCCNC(=O)CN(c2ccccc2)S(C)(=O)=O)cc1,8.99%
11,CCOc1ccc(NC(=O)N(CCC(C)C)C(C)c2ccco2)cc1 (centres unmarked),2.6%
12,O=C(COC(=O)CC(NC(=O)c1ccccc1Cl)c1ccccc1)Nc1cccc(F)c1 (centres unmarked),-1.8%
13,CSc1n[nH]c2nc3c(c(=O)n12)C1(CCCC1)Cc1ccccc1-3,3.82%
14,O=C(OCC(=O)N1CCCC1)c1cc2c(cc1[N+](=O)[O-])OCCO2,2.43%
15,CC1CN(C(=O)COC(=O)c2cc(S(N)(=O)=O)c(Cl)cc2Cl)CC(C)O1 (centres unmarked),6.48%
16,COc1ccc(CNC(=O)CN(CC2CCCO2)C(=O)CNS(=O)(=O)c2ccccc2)cc1 (centres unmarked),-0.6%
17,NC(=O)c1ccccc1NC(=O)CS(=O)(=O)Cc1ccccc1,12.9%
18,CCCCC(=O)Nc1cc(C)c(NC(=O)c2cccs2)cn1,3.07%
19,Cc1cccc(NCC(=O)c2c(N)n(C)c(=O)n(C)c2=O)c1C,19.7%
20,CCN(CC)S(=O)(=O)c1cccc(C(=O)NNC(=O)C2=NN(c3ccccc3)C(=O)CC2)c1,11.7%
21,COc1cc(/C=N/n2c(COc3ccccc3)n[nH]c2=S)cc(OC)c1OC(C)=O,14.8%
22,CC1(C)CC(=O)C2=C(C1)N(c1ccc(F)cc1)C(=O)C2(NC(=O)c1ccccc1F)C(F)(F)F (centres unmarked),-0.264%

row,SMILES,"hERG current change (%, negative = inhibition) at 1uM"
1,COc1ccc(C(=O)C2CCCN(C(=O)C3=CCCC3)C2)cc1OC (centres unmarked),10.8%
2,O=C1CC(N2CCN(c3ccc(O)cc3)CC2)C(=O)N1Cc1cccs1 (centres unmarked),1.7%
3,O=C(CCC(=O)Nc1ccccc1Cl)NNC(=O)COc1ccc([N+](=O)[O-])cc1,2.74%
4,CC(C)Cc1cc(C(=O)N2CCCC(CO)(Cc3ccc(F)cc3F)C2)n[nH]1 (centres unmarked),16.2%
5,Cc1ccc(C2N(c3cccc(Cl)c3)C(=O)C3CCCN32)o1 (centres unmarked),-1.45%
6,CCOC(=O)c1c(C)[nH]c(C(=O)N/N=C/c2ccc(Br)cc2)c1C,12.7%
7,O=C(Cc1ccccc1Cl)Nc1cccnc1,10.5%
8,Cl.OC(COCc1cccs1)CN1CCCCCC1 (centres unmarked),-5.74%
9,CCN(CC)C(=S)NC(=O)C12CC3CC(CC(C3)C1)C2,4.98%
10,CCOC(=O)C1CCN(C(=O)CCS(=O)(=O)Cc2ccccc2)CC1,13.2%
11,Cc1ccc(NC(=O)COc2ccc(/C=N\NC(=O)c3cccnc3)cc2)cc1C,10.1%
12,CCCn1c(SCC(=O)NCc2ccco2)nnc1C(C)C,15.8%
13,Cc1ccc(CNS(=O)(=O)c2cc3c4c(c2)CCN4C(=O)CC3)cc1,-6.32%
14,CC(=O)N1c2ccc(S(=O)(=O)CCC(=O)O)cc2CC1C (centres unmarked),7.94%
15,Cc1cc(C)c(-c2c(O)c3ccccc3n(C)c2=O)c(C)c1,10.9%
16,CC(C)N1CC=C2C(C#N)=C(N)C(C#N)(C#N)[C@H](c3ccoc3)[C@H]2C1,2.04%
17,CCC1=Nc2ccccc2-c2nnc(SC)nc2O1,-12%
18,CN(C(=O)CN1C(=O)c2cc(Cl)c(Cl)cc2C1=O)C1CCS(=O)(=O)C1 (centres unmarked),-7.83%
19,COC(=O)c1ccc(CSc2ncnc3c2sc2nc(N4CCOCC4)c4c(c23)CCCC4)o1,8.01%
20,C=CCNC(=O)CN(Cc1ccccc1)S(=O)(=O)c1ccc(C)cc1,6.86%
21,Cc1cccc(CN2CCC(n3nccc3NC(=O)c3ccccc3C)CC2)n1,4.02%
22,CC(=O)NC1=NN(C(C)=O)C(C)(c2cccs2)S1 (centres unmarked),7.58%
